PMC6212790
The list shows a part of the results. At the low end of the ranking the order means little.

target: T1, GST-Rok (full length) (UniProt O34857); test: protein binding microarray; details: Rok is a gene silencer of Bacillus subtilis; high values mean tight binding; most listed sequences are background and not binding sites; double strand, one strand shown;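 note: rank score from −0.5 (least bound) to 0.5 (best bound)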
T1 sequence: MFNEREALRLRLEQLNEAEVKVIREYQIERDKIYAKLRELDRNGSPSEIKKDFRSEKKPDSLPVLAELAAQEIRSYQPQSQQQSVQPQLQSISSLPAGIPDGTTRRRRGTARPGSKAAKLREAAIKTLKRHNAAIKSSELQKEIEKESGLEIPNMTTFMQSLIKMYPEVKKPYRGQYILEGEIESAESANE

Row | Sequence | binding signal [E-score]
1 | CAACCTCC | -0.0444
2 | CCTTGCGA | -0.33
3 | AACCATGA | 0.103
4 | GAACCTCA | -0.113
5 | ATGGAGAC | 0.0297
6 | GCGGGTAA | -0.237
7 | CAAAGAAG | -0.198
8 | CTAGCCGC | -0.287
9 | ACTAGGAG | 0.0251
10 | CCACCCGC | -0.244
11 | CAACACCA | 0.05
12 | GAGTAGAA | 0.202
13 | ATACTATG | 0.271
14 | GTAACGCA | 0.0539
15 | ATCAAGTG | 0.0955
16 | GCATACAA | 0.155
17 | GTACTCCA | -0.0627
18 | AACGTTGG | -0.192
19 | CCGCGTCA | -0.155
20 | GGTCGCCA | -0.183
21 | ATTGCTAA | 0.231
22 | CTGTTTTC | 0.0546
23 | ACACCCAG | -0.102
24 | AATGAGGG | -0.0642
25 | ACCATTTC | 0.234

Row | Sequence | binding signal [E-score]
26 | ATGCGCGG | -0.158
27 | AATCTTTC | -0.00113
28 | CCAAACGA | 0.042
29 | AGTACTCA | 0.0122
30 | CAGACGAG | -0.154
31 | CTTGTCCC | -0.205
32 | GAGCTGAA | -0.2
33 | AACGGCGG | -0.0818
34 | GCGTCGCA | -0.0407
35 | CCTCACAA | -0.0407
36 | CGTCGCTC | -0.168
37 | GAACTTCC | -0.00257
38 | AAGTATGG | 0.216
39 | ATGACCGA | 0.0852
40 | GCGTGTGA | -0.0972
41 | TAGAACAA | 0.119
42 | ATGGAGTG | 0.105
43 | AGTACGTC | 0.0485
44 | CATCTAGG | -0.00407
45 | ACTTGTAC | 0.345
46 | CAACAATA | 0.0121
47 | GGGTGAAC | -0.0789
48 | TCAAACGA | 0.0971
49 | AAGCATTG | 0.0781
50 | CGATCCCC | -0.348

Row | Sequence | binding signal [E-score]
51 | AAGGTCCA | -0.187
52 | ACCATGAA | -0.0879
53 | GGTTCCAA | -0.225
54 | CAATCAGC | 0.0107
55 | CCGGACGA | -0.173
56 | AACCCCAC | -0.24
57 | CTAAAGCC | -0.235
58 | CGTCCAAA | -0.244
59 | AATGGCAA | -0.000442
60 | CAGTGAAA | -0.014
61 | CTTGAATA | -0.0285
62 | GTGGCTCA | -0.145
63 | CTCAGTGA | -0.0959
64 | ATGTGGGG | -0.212
65 | CGTTTTAG | 0.0373
66 | CACTCATC | -0.0594
67 | AGGGAATA | 0.00647
68 | ATCTCTCG | 0.0332
69 | GTTAAGAA | -0.11
70 | GATGATAA | 0.134
71 | TACAGAGA | 0.21
72 | CCTACCTA | 0.22
73 | CAGGGTCA | 0.0548
74 | TCCACTAA | 0.126
75 | CGCTGTAG | 0.104

Row | Sequence | binding signal [E-score]
76 | CGGGTATC | -0.0638
77 | CAATGAGG | -0.219
78 | ACCTCGCA | 0.0865
79 | AGTCCTGA | -0.162
80 | GTGTATTA | 0.205
81 | AGTGGGAG | -0.296
82 | CGGTCAGC | -0.261
83 | GCTGCTAC | 0.0943
84 | ATGGCTGG | -0.0984
85 | GCTGGAAA | -0.121
86 | AGACACCC | -0.0401
87 | CATTATAC | 0.265
88 | AGAGTGAT | 0.0166
89 | ACGTACCG | -0.15
90 | CTGTCTCC | -0.277
91 | AGTCGGCG | -0.221
92 | AACCGTCT | -0.0545
93 | CAACCAAA | 0.0924
94 | AGAACGTC | -0.116
95 | AAAGGCCC | -0.259
96 | ACCTTTTA | 0.051
97 | CGAACTTC | 0.118
98 | GGGTCAGA | -0.201
99 | CCAACTAC | 0.123
100 | AGATACAT | 0.229

Row | Sequence | binding signal [E-score]
101 | CCCACCTC | -0.236
102 | ATTGGTTA | 0.266
103 | CCCCACAC | -0.39
104 | CATCTTAG | 0.118
105 | ATCCGATC | 0.0265
106 | ACCTCTCA | -0.14
107 | CGACTTAA | 0.0646
108 | CACCGACA | -0.203
109 | TGAGATAA | 0.0648
110 | AATCGTAA | 0.136
111 | AGCACGGG | -0.212
112 | GGCGTTCA | -0.194
113 | CGCCATGC | -0.319
114 | CCGTCTGA | -0.144
115 | AAAATGCT | 0.0308
116 | AGCATAAG | -0.0364
117 | AGTGAACA | 0.00621
118 | CACCCGCC | -0.22
119 | CCGGCTTC | -0.134
120 | ACCCGCGA | -0.165
121 | CCGAATCC | -0.0753
122 | ATACGTGC | 0.12
123 | CCGTGCGC | -0.21
124 | CAGAGCCC | -0.348
125 | ATATTCAC | 0.265

Row | Sequence | binding signal [E-score]
126 | CCCCGCCC | -0.438
127 | CCCACTGC | -0.283
128 | CCCAACCG | -0.167
129 | CGCGTCTA | 0.00787
130 | AGCTTTGG | -0.158
131 | GCGCATCA | 0.0639
132 | GGAGTGAA | -0.227
133 | TCCTGGAA | -0.1
134 | CCAGTTTC | -0.0817
135 | TAGCGCGA | 0.164
136 | AGTGTCAT | -0.0192
137 | TATAGGAA | 0.114
138 | AGAAGACT | -0.05
139 | CCCCATAA | -0.219
140 | AACTCGTG | -0.0922
141 | AGTATGAT | 0.24
142 | CTTCTGTC | -0.234
143 | TCATGCAA | 0.102
144 | AGGCTTCG | -0.0947
145 | ATTACAAG | 0.139
146 | AAGAGTCC | -0.323
147 | GGTTCCAC | -0.138
148 | GATATAGA | 0.228
149 | ATCGAACG | -0.0279
150 | ACATAGCG | 0.175

Row | Sequence | binding signal [E-score]
151 | AGAGGTCA | -0.232
152 | AACACAGC | -0.0213
153 | GATGTTAC | 0.153
154 | CGTGTATC | 0.114
155 | CGATCCTC | -0.319
156 | CACCTATA | 0.214
157 | TAACGACA | 0.237
158 | CACCAACC | -0.24
159 | GACGAGGC | -0.197
160 | AATGGAGT | 0.0603
161 | ATTCCGAG | 0.0438
162 | ATAGTAGC | 0.315
163 | GACCGCCA | -0.271
164 | ACTGTTTC | 0.0806
165 | CATTGTCA | -0.00854
166 | GAATGGGC | -0.201
167 | AGAAGACG | -0.0852
168 | ACAAATTC | 0.238
169 | CTGCGGTA | 0.189
170 | CTAGAAAA | 0.291
171 | CTCATAGA | -0.105
172 | CTCACTGA | -0.118
